These results are taken from publication PMC6919601, “Identification of Plasmodium dipeptidyl aminopeptidase allosteric inhibitors by high throughput screening” (PLoS ONE, 2019).

In all, about 110,000 compounds went through this assay and about 230 (0.21%) showed an effect of 50% or more. The list shows a part of the results.
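Also: 30 min substrate incubation versus DMSO and 10 µM JCP410 controls.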

In this assay the target is DPAP1 (Plasmodium falciparum, UniProt Q8IIJ9). The assay is described as follows: primary screen, percent inhibition; read by cleavage of a fluorogenic dipeptide substrate; higher = more effect of the substance. Details: species or system P. falciparum D10 trophozoite lysates; single well.
Chain of DPAP1 (Q8IIJ9 whole entry, looked up): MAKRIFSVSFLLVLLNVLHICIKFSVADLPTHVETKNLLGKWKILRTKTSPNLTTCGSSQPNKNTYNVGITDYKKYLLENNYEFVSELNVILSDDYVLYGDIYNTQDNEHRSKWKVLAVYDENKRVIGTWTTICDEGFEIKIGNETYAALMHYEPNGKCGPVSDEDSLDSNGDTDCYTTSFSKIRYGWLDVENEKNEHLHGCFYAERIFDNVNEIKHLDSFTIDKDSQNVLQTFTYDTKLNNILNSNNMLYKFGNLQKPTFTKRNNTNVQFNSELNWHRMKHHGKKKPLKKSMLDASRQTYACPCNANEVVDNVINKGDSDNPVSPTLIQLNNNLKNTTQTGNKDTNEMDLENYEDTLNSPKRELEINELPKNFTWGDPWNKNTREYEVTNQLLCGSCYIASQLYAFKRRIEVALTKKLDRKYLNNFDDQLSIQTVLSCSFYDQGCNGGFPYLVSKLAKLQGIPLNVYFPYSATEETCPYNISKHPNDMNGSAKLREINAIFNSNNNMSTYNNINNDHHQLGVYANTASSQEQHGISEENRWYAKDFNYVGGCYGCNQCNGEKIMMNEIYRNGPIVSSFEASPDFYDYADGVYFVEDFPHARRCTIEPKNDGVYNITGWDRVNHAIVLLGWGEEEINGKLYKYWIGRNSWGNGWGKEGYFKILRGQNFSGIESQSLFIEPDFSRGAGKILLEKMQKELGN
For `Cc1oc(-c2ccc(C(=O)NC3CCCCCC3)cc2)nc1CS(=O)(=O)c1ccccc1`, the “% Inhibition @ 10 uM” value is listed as -8.88%.

As for `Fc1ccccc1CSCc1nc2ccccc2[nH]1`, the “% Inhibition @ 10 uM” value is listed as -4.6%.

With `CCCN(CCC)CCNC(=O)C1CCN(S(=O)(=O)c2cccc3nsnc23)CC1`, the “% Inhibition @ 10 uM” value is -3.58%.

Consider `Cc1ccc(C)c(N2C(=O)CC3CS(=O)(=O)CC32)c1` (stereo not drawn), for which the “% Inhibition @ 10 uM” value is listed as -0.105%.

As to `O=c1[nH]c(=O)n(Cc2ccccc2)cc1Cl`, the “% Inhibition @ 10 uM” value is given as 3.61%.

With `CCOc1cc(C2c3c(oc4ccccc4c3=O)C(=O)N2c2nccs2)ccc1OCCC(C)C` (stereo not drawn), the “% Inhibition @ 10 uM” value amounted to 2.16%.

On to `CCCC1=NN(C(=O)c2ccccc2OC)C(O)(C(F)(F)F)C1` (stereo not drawn), for which the “% Inhibition @ 10 uM” value is recorded as -12.5%.

Take `COc1cc(CCNC(=O)c2cc(C)nc3c2c(C)nn3-c2ccccc2)cc(OC)c1OC`: the “% Inhibition @ 10 uM” value was 0.44%.

In the case of `COc1ccc(OCC(=O)NCc2ccco2)cc1`, the “% Inhibition @ 10 uM” value amounted to 4.32%.

For the molecule `C=CCSc1nc2c(C)cccc2[nH]1`, the “% Inhibition @ 10 uM” value was 2.25%.

In the case of `Cc1nnc(N2CCC(C(=O)NCCN(C)C)CC2)c2nn(-c3ccccc3)c(C)c12`, the “% Inhibition @ 10 uM” value was -2.68%.

In the case of `CCc1cccc2c1Sc1ccccc1CC2N1CCNCC1` (stereo not drawn), the “% Inhibition @ 10 uM” value is reported as 2.55%.

For the molecule `N#Cc1c(-c2cccs2)cc(-c2ccccc2)nc1S`, the “% Inhibition @ 10 uM” value came to 20.6%.

`Cc1nc2c(C(=O)NC(C)C)cnn2c(C)c1Cc1ccc(Cl)cc1`: the “% Inhibition @ 10 uM” value is 2.79%.

As to `Brc1ccc(N2N=C(c3cccnc3)CC2c2ccccc2)cc1` (stereo not drawn), the “% Inhibition @ 10 uM” value stood at 5.73%.

Consider `CCc1ccc(NC(=O)Cn2cnc3scc(-c4ccc(OC)cc4)c3c2=O)cc1`, for which the “% Inhibition @ 10 uM” value is 6.73%.

Regarding `O=S(=O)(Nc1ncccn1)c1ccc2ccccc2c1`, the “% Inhibition @ 10 uM” value is listed as -3.04%.

As to `CCCN1CCC(N(C)CCN(C)C)CC1`, the “% Inhibition @ 10 uM” value was -0.292%.

For the molecule `CC1CC(C)(C)NC(=S)N1CCC(=O)N1CC=C(c2ccccc2)CC1` (stereo not drawn), the “% Inhibition @ 10 uM” value is on record as -2.4%.

As to `C=CCC(OC(=O)N[C@@H](CC(C)C)C(=O)NCC#N)c1ccccc1` (stereo partly drawn), the “% Inhibition @ 10 uM” value is on record as -4.72%.

Regarding `Oc1ccc(Cl)cc1-c1cc(-c2ccc(Cl)cc2)[nH]n1`, the “% Inhibition @ 10 uM” value was found to be 4.61%.

For `CCOC(=O)c1c(NC(=O)c2ccc(S(=O)(=O)N(C)C)cc2)sc2c1CCN(CC)C2`, the “% Inhibition @ 10 uM” value was 7.66%.

Take `O=C(NCc1nnc(S)n1-c1ccccc1)c1cccs1`: the “% Inhibition @ 10 uM” value turned out to be 6.51%.

Regarding `CCn1nc(C)c2c(C(F)(F)C(F)(F)F)cc(=O)n(CC(=O)NC3CCCCC3)c21`, the “% Inhibition @ 10 uM” value is -0.154%.

In the case of `c1ccc(CCn2cnnn2)cc1`, the “% Inhibition @ 10 uM” value is -5.96%.

Regarding `CCOc1ccc(CCNC(=O)Cn2ncn3c(cc4sc(CC)cc43)c2=O)cc1OCC`, the “% Inhibition @ 10 uM” value is reported as 1.68%.

As for `O=S(=O)(NCCc1cccs1)c1ccc(-c2ccc(O)nn2)o1`, the “% Inhibition @ 10 uM” value is recorded as -4.41%.

For the molecule `CC(=O)c1ccc(NC(=O)c2cc3nc(C(F)F)cc(C(F)F)n3n2)cc1`, the “% Inhibition @ 10 uM” value is listed as -2.09%.

As for `O=C(O)c1cc([N+](=O)[O-])c(NCCCO)c([N+](=O)[O-])c1`, the “% Inhibition @ 10 uM” value is -0.128%.

For `COC(=O)C1=CN(CC2CCCO2)C=C(C(=O)OC)C1c1cccc(O)c1` (stereo not drawn), the “% Inhibition @ 10 uM” value was -3.14%.

As to `CC(=O)c1c(N2CCOCC2)nc(=O)n(-c2ccccc2)c1C`, the “% Inhibition @ 10 uM” value is listed as -4.93%.

With `COc1cc(OC)cc(C(=O)Nc2ccc(S(=O)(=O)Nc3cc(C)on3)cc2)c1`, the “% Inhibition @ 10 uM” value came out at 3.65%.

Turning to `COc1ccc(OC)c(S(=O)(=O)NCC2CCCO2)c1` (stereo not drawn), the “% Inhibition @ 10 uM” value is reported as -1.06%.

Consider `Cc1c(C(=O)NCc2c(F)cc(F)cc2F)oc2ccc(S(=O)(=O)N3CCCC(C)C3)cc12` (stereo not drawn), for which the “% Inhibition @ 10 uM” value is on record as -1.31%.

For the molecule `CN(C)C(CNC(=O)c1ccc(Br)cc1)c1ccco1` (stereo not drawn), the “% Inhibition @ 10 uM” value amounted to 6.34%.

Regarding `O=c1c2ccccc2nc(CNC2CCCCC2)n1-c1ccc(F)cc1`, the “% Inhibition @ 10 uM” value is listed as 3.66%.

In the case of `Cc1cccc(CSc2nc3n(n2)C(c2cccs2)C2=C(O)CCCC2=N3)c1` (stereo not drawn), the “% Inhibition @ 10 uM” value was determined as 2.55%.

On to `CCC(Sc1nc2ccccc2c2nc3ccccc3n12)C(=O)N1CCOCC1` (stereo not drawn), for which the “% Inhibition @ 10 uM” value stood at 1.24%.

Take `C=C(C)CC(C(=O)NCC#N)c1cccc(Br)c1` (stereo not drawn): the “% Inhibition @ 10 uM” value is 1.7%.

In the case of `O=C(c1ccc2c(c1)OCO2)N1CCN(C(c2ccccc2)c2ccccc2)CC1`, the “% Inhibition @ 10 uM” value came out at 3.81%.

Turning to `CNC(=O)c1cc2c(=O)n3ccccc3nc2n(CCCOC)c1=N`, the “% Inhibition @ 10 uM” value was 0.279%.

Consider `Cc1cccc(CN2CCN(Cc3ccccc3)CC2)c1`, for which the “% Inhibition @ 10 uM” value is listed as -1.07%.

On to `CC1CCc2c(sc3nnn(CC(N)=O)c(=O)c23)C1` (stereo not drawn), for which the “% Inhibition @ 10 uM” value is -4.85%.

Turning to `O=C(COc1ccc(Cl)cc1)O/N=C1\CCCc2oc3c(c21)CCCC3`, the “% Inhibition @ 10 uM” value was -1.82%.

On to `CC12CNCC(C)(CN(Cc3ccccc3)C1)C2`, for which the “% Inhibition @ 10 uM” value stood at 1.54%.

Consider `CCOC(=O)C1=CN(C(C)C)C=C(C(=O)OCC)C1c1ccccc1Cl`, for which the “% Inhibition @ 10 uM” value was -1.48%.

On to `NC(=O)c1cc2cc(F)ccc2oc1=O`, for which the “% Inhibition @ 10 uM” value amounted to 0.351%.

In the case of `N#CCNC(=O)[C@H](Cc1c[nH]c2cccc(F)c12)NC(=O)OCc1ccccc1`, the “% Inhibition @ 10 uM” value was -8.26%.

As to `Cn1c(=O)c2c(nc(N3CCc4ccccc4C3)n2Cc2ccccc2)n(C)c1=O`, the “% Inhibition @ 10 uM” value was 3.06%.

Regarding `O=c1nc(/C=C/c2ccc(Cl)cc2)oc2ccccc12`, the “% Inhibition @ 10 uM” value is -4.57%.

Take `Cc1c(C(=O)NCCCn2ccnc2)oc2ccccc12`: the “% Inhibition @ 10 uM” value was -1.25%.
